Measured values reported in PubChem BioAssay AID1508624 (National Center for Advancing Translational Sciences (NCATS), 2021).
The whole screen tested about 48,000 compounds, of which about 120 (0.25%) were called active. About 4% were inconclusive and are not listed. Calls come from the whole dose curve; as a rule, active = well fitted activation curve with a large enough effect; inconclusive = small, poorly fitted or top-dose-only effect, or another doubt; inactive = no such curve, though single readings can be large or run the other way. The list shows a part of the results.

Test: Primary qHTS for Identification of Small Molecule Activators of Huntingtin-Antisense Promoter Activity; note: nearly all actives have a fitted effect of over 55% in size
Conditions: HEK293 HTT-AS promoter firefly luciferase reporter, 24 h; series mostly up to 57.5 µM; activity change, positive = activation: at the top concentration
Outline: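 HEK293 Fluc reporter, 2,500 cells/well, 24 h pre-culture; cpds up to 57.5 uM final, 24 h 37 degrees C; Dual-Glo, 10 min RT; normalized vehicle = 0%, zero RLU = -100%.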

Activity change, positive = activation, inactive:
O=C(CCn1nc(-c2ccccc2)c2ccccc2c1=O)Nc1ccccc1 -15.2%
Cc1cccc(C)c1NC(=O)Nc1csc2c1CCCC2 -18.3%
Cc1ccc2nc(N(CCCN(C)C)C(=O)c3ccco3)sc2c1 14.4%
Cc1ccc(-n2nc(CO)c(C(=O)NCc3ccccn3)n2)cc1 -8.15%
CC(=O)Nc1ccc(NC(=O)c2cc(=O)c3ccccc3o2)cc1 22.2%
COc1ccc(OCc2ccc(-c3nc(C#N)c(N4CCN(c5ccccc5)CC4)o3)o2)cc1 -6.74%
Cc1cc(-c2ccc(C)c(S(=O)(=O)Nc3cccc(C)n3)c2)on1 -21.6%
Cc1ccc2c(c1)N(C(=O)N1CCC(C(=O)NCc3cccc(Br)c3)CC1)CCO2 -26.6%
O=C(CSc1oc(-c2ccccc2)nc1S(=O)(=O)c1ccc(Br)cc1)c1ccccc1 -10.9%
C[N+](C)(C)CCCCCCCCCC[N+](C)(C)C -2.2%
COc1ccc(C)cc1NC(=O)COc1cc(=O)n(C)c2ccccc12 1.71%
COc1ccc(NC(=O)c2ccco2)cc1NC(=O)COc1cccc(C)c1C -22.3%
CCc1ccc(NC(=O)CN(C)S(=O)(=O)c2ccc3c(c2)c(=O)n(C)c(=O)n3C)cc1 -4.65%
CCOC(=O)c1cc2c(=O)n3ccccc3nc2n(Cc2ccco2)c1=NC(=O)c1ccc(Br)cc1 -18.4%
Cc1ccc(NC(=O)c2nnn(Cc3ccccc3)c2N)cc1C 28.1%
CCN1CCN(CC(=O)Nc2ccc(-c3cccc4c(=O)cc(N5CCOCC5)oc34)c3sc4ccccc4c23)CC1 -35.6%
O=C(Nc1ccc(Br)cc1)c1ccc(F)c(S(=O)(=O)NC2CCCCCC2)c1 -91.2%
Cc1ccccc1-c1nc(SCC(=O)NCc2ccc(F)cc2)c2c(=O)n(C)c(=O)n(C)c2n1 -1.96%
Cc1cn2c(=O)cc(COc3cccc(NC(=O)c4ccc(C(C)(C)C)cc4)c3)nc2s1 6.21%
CCOC(=O)C1CCN(CC(=O)Nc2cc(C)c3c(=O)oc4ccccc4c3n2)CC1 -11.3%
CCOc1ccc(NC(=O)c2c(C)nn(-c3ccc(F)cc3)c2-n2cccc2)cc1 -8.58%
Cc1nn(-c2ccccc2)c2nc(C3CC3)cc(C(=O)Nc3ccc(F)cc3)c12 -33.2%
N#CC(=C(N)Sc1ccc(N)cc1)c1ccccc1C(F)(F)F -10.5%
CCc1c(C)sc2c1CCN(Cc1ccccc1)C2c1ccccc1 (configuration not stated) -35.9%
O=C(Nc1ccc(OCc2cc(=O)n3c4c(sc3n2)CCCC4)cc1)c1cccc(F)c1 -4.8%
Cc1ccc(NC(=O)CN(C)S(=O)(=O)c2ccc3c(c2)n(C)c(=O)c(=O)n3C)cc1F -3.39%
COC(=O)c1sc2cccc(F)c2c1S(=O)(=O)N1CCN(c2cccc(OC)c2)CC1 -30.7%
CCOC(=O)c1cc(-c2ccccc2)n(CCC(=O)NCc2ccccc2Cl)c1C -29.4%
COc1ccc(Nc2nc3ccccc3nc2NS(=O)(=O)c2ccc(C)cc2)c(OC)c1 -12.6%
CCN(CC)c1cc(C)c2cc(NC(=O)c3cccc(OC)c3OC)ccc2n1 -6%
O=C(COc1ccccc1F)OCc1cc(=O)n2nc(C3CCCCC3)sc2n1 4.11%
COc1cccc2cc(S(=O)(=O)c3ccc(F)c(C)c3)c(=O)oc12 14.8%
O=C1Nc2ccccc2Oc2cc(Oc3cccc(Cl)c3)ccc21 -19.8%
Cc1nc2nc(SCC(=O)N(C)Cc3ccccc3)nn2c(C)c1Cc1ccccc1Cl -1.23%
Fc1ccc(N2CCN(c3nc4ccccc4c4nc(-c5cccnc5)nn34)CC2)cc1 -2.26%
CCCCN(C)CCNC(=O)C1CCCN(S(=O)(=O)c2cccc3nsnc23)C1 (configuration not stated) -14.7%
Cc1nnc(N2CCCC(C(=O)NCc3ccccc3)C2)c2nn(-c3ccccc3)c(C)c12 (configuration not stated) -9.22%
CCc1ccc(S(=O)(=O)c2cn(C)c3cc(N4CCOCC4)c(F)cc3c2=O)cc1 -14.7%
Cc1c(Cl)cccc1-c1ccc(CNCCCSc2nnnn2C)o1 -17.3%
Cc1ccn2c(Nc3ccccc3C)c(-c3ccc(N4CCOCC4)cc3)nc2c1 -16.8%
CCCc1c2oc(C(=O)O)cc(=O)c2cc2c(=O)cc(C(=O)O)n(CC)c12 -0.428%
Cc1ccccc1CCNC(=O)c1ccc(NC(=O)N2CC(C)Sc3ccccc32)cc1 (configuration not stated) -7.41%
O=C(COc1ccc(Cl)cc1)NCC(c1ccco1)S(=O)(=O)c1ccccc1 (configuration not stated) -20.9%
COc1ccccc1NC(=O)c1sc2nc3c(c(C(F)(F)F)c2c1N)CN(C(C)=O)CC3 -4.11%
Cc1nn(-c2ccc(N3CCOCC3)nn2)c(C)c1CCC(=O)NCc1ccccc1 -9.69%
Cc1cc(C)c(NC(=O)CSc2n[nH]c(-c3ccccc3Cl)n2)c(C)c1 -25%
Cc1ccc(C)c(Nc2nnc(-c3ccc(C)c(S(=O)(=O)N4CCN(C)CC4)c3)c3ccccc23)c1 2.4% [at 11.5 µM, percent change from vehicle, -100% = no light]
CCc1ccc(NC(=O)C(=O)NCCc2csc(-c3cccc(F)c3)n2)cc1 0.614%
CCn1nc(C)c2c(-c3ccccc3)cc(=O)n(C(C)C(=O)Nc3cccc(F)c3)c21 (configuration not stated) -26.1%
CCC(Sc1ncc(S(=O)(=O)c2ccc(C)cc2)c(=O)[nH]1)C(=O)Nc1cc(C)ccc1C (configuration not stated) -17%
CCc1ccc(NC(=O)CN2CCN(C3CCCCC3)C(=O)C2=O)cc1 -3.29%
O=C(Cn1cc(SCc2ccc(Br)cc2)c2ccccc21)N1CCCCC1 1.7%
Cn1nnnc1SCCCNCc1cccc(OCc2ccccc2F)c1 -2.04%
O=C(Nc1c(C(=O)c2ccc(Cl)cc2)oc2ccccc12)c1cc(=O)c2ccccc2o1 0%
Cc1ccc2oc(=O)c(S(=O)(=O)c3ccc(F)cc3)cc2c1 -2.52%
CCc1nc2ccc(C(=O)NCc3ccc(N(C)C)cc3)cc2nc1CC -8.65%
COc1ccc(NC(=O)c2ccco2)cc1NC(=O)c1ccc(C)c(C)c1 -12.4%
CCN(C(=O)CSc1nc2ccccc2n1Cc1ccc(C(=O)OC)cc1)c1ccccc1 -15.4%
COc1ccc(CCN2C(=O)NC(NC(=O)c3ccccc3OC)(C(F)(F)F)C2=O)cc1OC (configuration not stated) -21.7%
C=C(C)Cn1c(=O)c2c(nc3n2CCN3c2cc(C)cc(C)c2)n(C)c1=O -4.8%
O=C(O)c1ccccn1 -5.02%
CN(C)CCNC(=O)CN1N=C(c2ccccc2)CCC1=O 1.16%
